Test results taken from PubChem BioAssay AID1508642 (National Center for Advancing Translational Sciences (NCATS), 2021).
The campaign covered roughly 43,000 compounds. About 200 (0.47%) were called active. Roughly 12% stayed inconclusive and do not appear here. Calls follow the shape of the dose curve; as a rule, active = well fitted cell-killing curve with a large enough effect; inconclusive = small, poorly fitted or top-dose-only effect, or effect the other way; inactive = flat fitted curve, though single readings scatter. The list shows a part of the results.

Test: Cell viability qHTS assay in S16 Pmp22-F2sN cells; also: nearly all actives have a fitted effect of over 65% in size
Conditions: S16 Pmp22-F2sN Schwann cells viability, CellTiter-Glo, 24 h; series mostly up to 57.5 µM; activity change, negative = cytotoxicity: at the top concentration
Method in brief: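 S16 Pmp22-F2sN Schwann cells (500-1,000/well) in phenol-red-free DMEM with 10% FBS received 23 nL compound by pin tool for 24 h at 37 °C. Viability was then read as CellTiter-Glo luminescence after 15 min at room temperature.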
% is scaled to controls: 0 for no effect and ±100 for the full control effect; potency is read from the fitted curve at half-maximal effect.

Compound	activity change, negative = cytotoxicity	Potency
COc1cc(NC(=O)CSc2nc3ncccc3o2)cc(OC)c1	inactive: 5.36%	
CCC(C(=O)Nc1ccc(C)c(C)c1)n1c(=O)c(C(F)(F)F)nc2ccccc21 (stereo not given)	inactive: 20.6%	
Cc1ccc(CNC(=O)CCCn2c(=O)c3ccccc3n(CC(=O)Nc3ccc(C)cc3)c2=O)cc1	inactive: 3.09%	
COc1ccc(-c2nc(CS(=O)(=O)CC(=O)NCc3ccccc3Br)c(C)o2)cc1	inactive: 13.6%	
O=C(NCCCN1CCCCCC1)c1ccc2c(c1)sc1nc(-c3ccccc3)cn12	inactive: 2.38%	
COc1cccc(NC(=O)Cn2c(=O)n(CCC(=O)NCCc3ccc(Cl)cc3)c(=O)c3ccccc32)c1	inactive: 17.7%	
CCOC(=O)c1c(NC(=O)COc2ccc(Cl)cc2C)sc2c1CCCCC2	inactive: 3.55%	
Cc1ccc(CNC(=O)CS(=O)(=O)c2cccc3nsnc23)cc1	inactive: 6.44%	
CCOc1ccc(N2CC(c3nc4ccccc4n3CCOc3ccccc3OC)CC2=O)cc1 (stereo not given)	inactive: -35.5%	
O=C1CC(c2nc(-c3ccccc3)no2)CN1c1ccccc1 (stereo not given)	inactive: 6.91%	
CCc1nc2ccc(C(=O)NCc3cc(OC)ccc3OC)cc2nc1CC	inactive: -6.77%	
Cc1ccc(-c2nc3ncccn3c2Nc2ccc3c(c2)OCCO3)cc1	inactive: 8.42%	
CCc1ccc(CNc2ccc3c(c2)ncn3C(C)(C)C)cc1	inactive: -11.5%	
O=C(CCS(=O)(=O)c1ccc(Br)cc1)Nc1ccc(F)cc1F	inactive: -3.11%	
COc1cccc2c1cc1c(=O)n(CC(=O)N3CCN(c4ccccc4)CC3)nc(C)n12	inactive: -1.19%	
Cc1cc(OC(C)C(=O)Nc2cccc(-c3nc4ccccc4o3)c2)cc(C)c1Cl (stereo not given)	inactive: 12%	
COc1ccc(-c2nc(CSCC(=O)N3CCN(c4cc(Cl)ccc4C)CC3)c(C)o2)cc1	inactive: -17%	
Cc1ccc(Cn2c(C)c3cnn(CC(=O)NCc4ccccc4)c(=O)c3c2C)cc1	inactive: -17.9%	
CC(=O)N1CCc2cc(S(=O)(=O)CCC(=O)Nc3ccc(C)cc3Br)ccc21	inactive: -1.43%	
CCOc1ccc(CCNC(=O)CS(=O)(=O)Cc2nc(-c3ccc(OC)cc3)oc2C)cc1	inactive: 1.83%	

Compound	activity change, negative = cytotoxicity	Potency
Cc1cccc2sc(N(CCN(C)C)C(=O)c3ccc4c(c3)OCCO4)nc12	inactive: -5.93%	
COc1ccc(Cn2c(=O)n(Cc3ccco3)c(=O)c3oc4ccccc4c32)cc1	inactive: 1.58%	
CCn1c(=N)c(C(=O)NCc2ccccc2)cc2c(=O)n3cccc(C)c3nc21	inactive: 5.84%	
Cc1cccc(-c2nc(C)c(CCNC(=O)C(=O)Nc3ccccc3C#N)s2)c1	inactive: 27.2%	
CC(C)c1ccc(C2NC(=O)c3n[nH]c(-c4cccs4)c32)cc1 (stereo not given)	inactive: -21.2%	
COc1ccc(Cl)cc1S(=O)(=O)NCc1ccc2c(c1)CCN2C(=O)c1cccc(C)c1		active: 14.1 µM
Cc1cccc(NC(=O)CSc2nc(-c3ccccc3)cc(=O)[nH]2)c1C	inactive: -0.22%	
Cc1ccc(C(C)C)c(OCC(O)CN2CCN(c3ccccc3F)CC2)c1 (stereo not given)	inactive: 1.92%	
Cc1ccc(NC(=O)CCC(=O)N2Cc3ccccc3Oc3ncccc32)c(C)c1	inactive: -16.8%	
CCOc1ccc(CCNC(=O)CN2C(=O)COc3ccc(S(=O)(=O)N4CCCC4)cc32)cc1	inactive: 4.18%	
CCOC(=O)C1CCCN(C(=O)c2ccc3c(c2)sc2nc(-c4ccc(CC)cc4)cn23)C1 (stereo not given)	inactive: -24%	
Cc1ccc(CNC(=O)C(C)n2nc(C)n3c(cc4sccc43)c2=O)cc1 (stereo not given)	inactive: 4%	
COc1ccccc1C(=O)Nc1cccc(C(=O)OCc2cc(=O)n3ccsc3n2)c1	inactive: 2.26%	
Cc1ccc(S(=O)(=O)N(CC(=O)Nc2ccc(Cl)cc2Cl)c2ccccc2C)cc1	inactive: 0.651%	
CCOC(=O)c1ccc(N2C(=O)c3n[nH]c(-c4ccco4)c3C2c2cccc(OC)c2)cc1 (stereo not given)	inactive: -15.1%	
COC(=O)c1ccc2c(=O)n(CCCCCC(=O)NCCc3ccc(Cl)cc3)c(=O)[nH]c2c1	inactive: 2.13%	
Cc1oc(-c2ccc(C(=O)NCc3cccc(F)c3)cc2)nc1COc1ccccc1	inactive: 15%	
N#Cc1c(C(F)(F)F)cc(-c2ccc(F)cc2)nc1SCC(=O)Nc1ccccc1	inactive: -3.61%	
CCn1c(C(=O)N2CCC(C(=O)NCCc3ccc(C)cc3)CC2)cc2sccc21	inactive: -4.94%	
Cc1ccc(Cn2ccnc2SCC(=O)NCc2ccccc2Cl)cc1	inactive: 13.9%	

Compound	activity change, negative = cytotoxicity	Potency
O=C1c2[nH]nc(-c3ccccc3O)c2C(c2ccc(Cl)cc2)N1Cc1ccco1 (stereo not given)	inactive: -24.6%	
CCN1CCN(C(=O)c2cnn(-c3ccc(F)cc3)c2-n2cccc2)CC1	inactive: -4.43%	
Cc1ccc(C2C=C(c3ccc(Cl)cc3)Nc3nc(NS(=O)(=O)c4ccccc4)nn32)cc1 (stereo not given)	inactive: -3.52%	
COc1ccccc1NC(=O)Cn1c(=O)n(-c2cccc(C(C)=O)c2)c(=O)c2c3c(sc21)CN(C(C)=O)CC3	inactive: 0.309%	
Cc1ccc(CNC(=O)CCCCn2c(=O)c3ccccc3n(Cc3c(C)cc(C)cc3C)c2=O)cc1	inactive: -0.11%	
COc1cccc(NC(=O)CSC2=Nc3ccccc3C3=NC(CC(=O)NCCc4ccccc4)C(=O)N23)c1 (stereo not given)	inactive: -0.774%	
CCOC(=O)c1ccccc1NC(=O)Cn1c(=O)n(Cc2nc(-c3ccccc3)no2)c(=O)c2ccccc21	inactive: -4.88%	
COc1ccccc1N1CCN(C(=O)Cn2ncc3c([nH]c4ccccc43)c2=O)CC1	inactive: 16.3%	
O=C(CCc1nc(CN2CCN(S(=O)(=O)c3ccc(F)cc3)CC2)no1)N1CCCCC1	inactive: -2.66%	
CCc1ccc(-n2c(SCc3ccccc3F)nc3[nH]ncc3c2=O)cc1	inactive: -25%	
O=C(c1ccc2c(c1)N(Cc1ccccc1F)C(=O)c1ccccc1S2(=O)=O)N1CCCCC1	inactive: 21.2%	
COc1cccc(NC(=O)CSC2=Nc3ccccc3N=C(c3ccc(F)cc3)C2)c1	inactive: -17.3%	
CCc1ccc(C(=O)c2cn(CC(=O)NCCc3ccc(OC)c(OC)c3)c3nc(C)ccc3c2=O)cc1	inactive: 7.04%	
COc1ccc(OC)c(S(=O)(=O)N2CCC(c3ccncc3)CC2)c1	inactive: 3.02%	
CCOCCCNC(=O)NC(C)c1c(-n2cccc2)sc2c1CCN(CC)C2 (stereo not given)	inactive: 0.915%	
COc1ccc(C(=O)NCCn2cc(SCC(=O)Nc3cccc(C)c3)c3ccccc32)cc1	inactive: 3.68%	
CCOC(=O)c1c(N)n(-c2cccc(OC)c2)c2nc3ccccc3nc12	inactive: 2.54%	
Cc1cccc(-n2ncc3c(Nc4ccc(Oc5ccc(Cl)cc5)cc4)ncnc32)c1	inactive: 16.7%	
COCCc1nn2c(=O)cc(COC(=O)c3ccc(OC)c(OC)c3)nc2s1	inactive: 3.26%	
Cc1oc2ncn(CC(C)C)c(=O)c2c1C(=O)N1CCN(c2cccc(C(F)(F)F)c2)CC1	inactive: -0.477%	
